Experimental data: paper PMC12136788
The list shows a part of the results.

B1: 128999148_128999366_914_CDS_ENSMUSG00000057236_ENSMUST00000102598|mouse|control|control (ssRNA)
RNA: GGGAGUUCUACAGUCCGACGAUCUAAGCAAUUCACUUCAGCUGUGUGAGCAUCAACCGAGUGGCUUGGCUUGGAAGUAUUGUUUGAACGAGUGUCCCAAAUCAUAAGCUUCUGGUCAUCAGCAACUGAGCCAAAUAGAGACUCCAACAGAGGAUUGAGCAUCA
B2: 42867276_42867396_6629_CDS_ENSG00000105429_ENST00000334370|human|control|control (ssRNA)
RNA: GGGAGUUCUACAGUCCGACGAUCCCAAACACAGUGCUGCCAGCCCCCAUCUGCUCCCUUAGAGUCCAGGCAGGAGGUACAGUUGGGUAGGAGGUGACAAGGGGUGGGGCAGGGCAGUGGGGGUGAUGAUUCCACCGGCAUGGGCAACAGAGGAUUGAGCAUCA
B3: chr2:168997265:168997266:-_ENSG00000198648_ENST00000355999|hu_hu|motif|central (ssRNA)
RNA: GGGAGUUCUACAGUCCGACGAUCUUUAUUUCGGGUAACAUCACCCCCUGUUGCUAGGAACGCACUUACCCCAAAAUCUGCGGUUUGUACUGAACCAUCCUCACCCAGAAGAAUAUUACCAGCUUUCAAAUCCCUGUGAAUCUGCAACAGAGGAUUGAGCAUCA
B4: chr2:127988141:127988142:+_ENSMUSG00000027381_ENSMUST00000110341|mus_hu|FALSE|FALSE (ssRNA)
RNA: GGGAGUUCUACAGUCCGACGAUCCUGUCAAAAUUCAUCAGUGCAAAACACAAGUAAGCCAGGGAAACUGCAAUACAAAUGCUACAUACGCUGGGUCCUAGAAAACAGGUUAGUGAUGGAUCAGUAUACAGCCAGAUCAGUGCUCAACAGAGGAUUGAGCAUCA
B5: chr11:60965389:60965390:-_ENSMUSG00000042506_ENSMUST00000041683|mus_mus|FALSE|FALSE (ssRNA)
RNA: GGGAGUUCUACAGUCCGACGAUCCCCCUCAAAAUGACAAGGGAAAGAAAAGUGACAUAAAUGUCUUGGUAAUAAAACUCCUAACCACAGUACAAUCAUUGGAUUUUUUUUCCCUCACGAUUUUUUAUUUCAAAGCUAUAAUAACAACAGAGGAUUGAGCAUCA
B6: chr12:101444792:101444793:+_ENSMUSG00000001175_ENSMUST00000110082|mus_mus|FALSE|FALSE (ssRNA)
RNA: GGGAGUUCUACAGUCCGACGAUCUGAUGUAGGGGCUUGACUUUAGGGGCAGGACCACCGACCAAUACAUGCAGACUUUGUGUGUGGACAGAGGGGCUUCUGACAUUCAGCUUCGCUAGAUACAAACAGAAUGAAGAAAUGAACCAACAGAGGAUUGAGCAUCA
B7: chr17:57746147:57746148:+_ENSG00000141367_ENST00000269122|hu_hu|motif|central (ssRNA)
RNA: GGGAGUUCUACAGUCCGACGAUCUUGCCCAGUCUUGCAAGCUGCCUGAAUAUAUUUAAAGUGCACAUCUGGGUCCUGGCGGAAGUUAACAAUGGAUCCCAGAAAAUAAAAGAGACCUUCAAAACUCUUGAAAGAUUCAAAAAGCAACAGAGGAUUGAGCAUCA
B8: chr7:141450121:141450122:+_ENSG00000106028_ENST00000265304|hu_mus|hu_hu_hu_mus_True|8_28 (ssRNA)
RNA: GGGAGUUCUACAGUCCGACGAUCUCAUCCGUUCUAUGCCUUUUCUUUUGUCUGGUCACUCAGAAAUAUAAUGUUAUCAGCUAUGAUUGUUGUUGCUUGCCGCCUCACAUUAUUUUUAUCCAUGUACUCACCAUAGUCCACUUUCAACAGAGGAUUGAGCAUCA
B9: chr1:186326634:186326635:-_ENSG00000047410_ENST00000367478|hu_mus|motif|central (ssRNA)
RNA: GGGAGUUCUACAGUCCGACGAUCAGCGAAUAGCAGACGCUGAUUCUGCUGCUGAAGCUCUUCGAUGUUCCUGUAAGAUACGGGGUGCUGCGAAAUCACUUCAGACGAACUACUGAUGUCAGCAGAGCUGACCUCCUCAUCCCGCAACAGAGGAUUGAGCAUCA
B10: 25965924_25966044_3465_3pUTR_ENSG00000143970_ENST00000336112|human|control|control (ssRNA)
RNA: GGGAGUUCUACAGUCCGACGAUCCCUGAGUGAGCGAAGUUGAACUGUGAGGGCGGCACAACUGAGAGAAGAUUCUGCCUCCGAACCCUCUGAAUGAGAGUCUGAAGGAUCUGAUCUUGGGUUGCUUUACUUAGUCCUUCGUGGCAACAGAGGAUUGAGCAUCA
B11: chr9:36594116:36594117:-_ENSMUSG00000062762_ENSMUST00000115086|mus_hu|FALSE|FALSE (ssRNA)
RNA: GGGAGUUCUACAGUCCGACGAUCUGGGUCACCGAUAAUUCGGGCUGUUACCGACUGAAGCACAGGAAUAAAUACUCGAUAAAACAAGAGGAGACUGAACCAGAACACUCCACCAUUCCAAGCACAACACUGGAAAAUUCUACUCAACAGAGGAUUGAGCAUCA
B12: chr1:39494447:39494448:+_ENSG00000168653_ENST00000372967|hu_mus|hu_hu_hu_mus_False|28_28 (ssRNA)
RNA: GGGAGUUCUACAGUCCGACGAUCGCACCGAGCGGCGUUCUUAUAGGGCUGUUCUGCGCUUAGGAACAUAAAGUGCCGGUCCAGGCUGAUGCCCAGCUUUUUCUGUAUGUCCAAGAAAGGCAUGGCUCUGCAGUGCCCUUGUCACAACAGAGGAUUGAGCAUCA
B13: chr1:127303955:127303956:-_ENSMUSG00000026341_ENSMUST00000027579|perfect_dup|FALSE|FALSE (ssRNA)
RNA: GGGAGUUCUACAGUCCGACGAUCUAUUACCGUACCGGUCAACGUCCGUUCUCCUACUUGUCUUGAGGUCCAAGAUGCAGCUAAGGCAAGAACAGCCUGCACAGCAAUGUACAAGCCUGGAACAUUGAAGGACUCAAACAUUAUCAACAGAGGAUUGAGCAUCA
B14: chr16:38090358:38090359:+_ENSMUSG00000022812_ENSMUST00000023507|mus_mus|FALSE|FALSE (ssRNA)
RNA: GGGAGUUCUACAGUCCGACGAUCUCUUCAAGACAGAUCGGUACGGAUAUUUAACACAUAGAUGAUUUAGAGCUGGGAGAAAAAUACAAUUCUUUCACCUCCCUUUCCUGGAAGAGGAGAAAAAGGGUGGAGUGGAAUCCUUAACAACAGAGGAUUGAGCAUCA
B15: 111860438_111860558_452_CDS_ENSG00000148700_ENST00000277900|human|control|control (ssRNA)
RNA: GGGAGUUCUACAGUCCGACGAUCGAAGUCUUGUCGUAGAUCAGGAGACAUGUUCCUCUCCCUAAUGUAUUCUGGGUCAUUUUCAUUGAUGCGGUCAAAAUAUCUCUCUUUGUGAGGCAUGCUGGGAGGAGGAGGAGUGGUAAUCAACAGAGGAUUGAGCAUCA
B16: chr5:116376479:116376480:+_ENSMUSG00000029516_ENSMUST00000051704|mus_hu|motif|central (ssRNA)
RNA: GGGAGUUCUACAGUCCGACGAUCCUGCUCCAGGAGGGAUCUCUGAGUCUCAGAGGCCUUCAGCUCCACCUCCUUCUGACGGAGCACAGCCUCCACCUCUGACACUCUCCGAUGUAACCGGGUCAUUUCCUGCUCCAUCUUGUGCAACAGAGGAUUGAGCAUCA
B17: chr9:82769708:82769709:-_ENSMUSG00000032253_ENSMUST00000034787|mus_mus|FALSE|FALSE (ssRNA)
RNA: GGGAGUUCUACAGUCCGACGAUCAAAAGCUUUUGUGGCUGAUGAUGUAGAGGGCUGCUCGGUGACAACUGGAUCUACAGCUACACGGUUGCUCCUAGUUCGAACCACAGAACUGGAUUCUGGUUUACCAUUCAUUUGCGCAGCCAACAGAGGAUUGAGCAUCA
B18: chr11:70340070:70340071:+_ENSMUSG00000018286_ENSMUST00000018430|mus_hu|FALSE|FALSE (ssRNA)
RNA: GGGAGUUCUACAGUCCGACGAUCCAGGUCUUCCCGGUAUCGGUAACACAUCUCCUUAAAGAGGCUGGCUGCUGUGUGGACCAGUGGAGGCUCAUUCAGUUCAAUGCUGUGGAAACCGAGCUGGUAGGUGACAGCAUCAGCUACCAACAGAGGAUUGAGCAUCA
B19: chr3:149686237:149686238:-_ENSG00000070087_ENST00000452853|perfect_dup|motif|central (ssRNA)
RNA: GGGAGUUCUACAGUCCGACGAUCCUCCCCACCUUGACUCUUUGUCCGGAUGUCCAUUGUGCAGUCACCAUCGACGUAUAGACGGUCUCUGAUCACUGAGCAUUUCUUCGCGCCAAGAGUCAAACCGUUGGUAAAGAAACCUUCCAACAGAGGAUUGAGCAUCA
B20: chr8:22473583:22473584:+_ENSG00000158941_ENST00000389279|hu_hu|FALSE|FALSE (ssRNA)
RNA: GGGAGUUCUACAGUCCGACGAUCAGGUUCAGGUGGGGACACGACCUUUUCAGGAAGGCUCAGUAGCAUCUUAUAAACUCUAUAGCCAAAAUCCCUCUGGAGCAUCUCCAGAAACAGCUCGGCCAGCACCAUCACCUCAAAAGACAACAGAGGAUUGAGCAUCA
B21: 20771871_20771991_4555_CDS_ENSMUSG00000036591_ENSMUST00000173194|mouse|control|control (ssRNA)
RNA: GGGAGUUCUACAGUCCGACGAUCGAACACACUGUCCAGCUCAUCCUCAGAGCUGCUGGGCUGGGCUUUCUCUUUCGGCUUUUUCCUCUUGCGACUGGCAGCUGCGAAGAUGGAGGAUACAAGCAGUUCCCUGCUAUACUGAUCCAACAGAGGAUUGAGCAUCA
B22: 58348954_58349233_811_CDS_ENSMUSG00000027810_ENSMUST00000029387|mouse|control|control (ssRNA)
RNA: GGGAGUUCUACAGUCCGACGAUCUGCCUGAGGUCCGGCAAAGUUGGGAUACUGAUACAGUCGAACAAAUGAGGGGGCACCUUUACUUCCUGGGACAUAAACUGCCACCUUAUAAGGUUGGGUUCCAGGUGAUAAAUUAAAGUCCAACAGAGGAUUGAGCAUCA

biological target: T1, UNK ZnF1-3 (human, UniProt Q9C0B0 31-174); test: nsRBNS (natural sequence RNA bind-n-seq); RBNS binding buffer (assumed for nsRBNS): 25 mM Tris pH 7.5, 150 mM KCl, 3 mM MgCl2, 0.01% Triton X-100, 500 ug/ml BSA, 20 U/ml SUPERase-In, 4 C; UNK is unkempt and MSI1 is Musashi-1; names of the RNAs are library labels; protein concentration not given here; high values mean tight binding
T1 sequence: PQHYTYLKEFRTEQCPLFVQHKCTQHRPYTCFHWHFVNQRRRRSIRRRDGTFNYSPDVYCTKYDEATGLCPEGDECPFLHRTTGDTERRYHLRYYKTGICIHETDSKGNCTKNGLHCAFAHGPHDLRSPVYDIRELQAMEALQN

Going from B1 to B2, the binding signal falls from 1.39 enrichment R to 1.28 enrichment R.

Compared with B3, B4 is higher in binding signal: 1 enrichment R for the first, 1.64 enrichment R for the second.

Compared with B5, B6 is higher in binding signal: 1.2 enrichment R for the first, 1.71 enrichment R for the second.

Compared with B7, B8 is lower in binding signal: 2.1 enrichment R for the first, 0.435 enrichment R for the second.

Going from B9 to B10, the binding signal rises from 1.11 enrichment R to 1.15 enrichment R.

Compared with B11, B12 is lower in binding signal: 1.71 enrichment R for the first, 0.838 enrichment R for the second.

Going from B13 to B14, the binding signal rises from 0.988 enrichment R to 1.18 enrichment R.

First: B15
Second: B16
The binding signal of the first is higher: 1.13 enrichment R for the first, 0.463 enrichment R for the second.

Going from B17 to B18, the binding signal rises from 0.8 enrichment R to 0.855 enrichment R.

First: B19
Second: B20
The binding signal of the first is higher: 1.09 enrichment R for the first, 0.725 enrichment R for the second.

First: B21
Second: B22
The binding signal of the first is lower: 0.636 enrichment R for the first, 1.25 enrichment R for the second.
